From paper PMC5762728 (Scientific Reports, 2018)

Target: T1, N-domain of bovine ACE (N-ACE) (Bos taurus, UniProt P12820)
T1 sequence (P12820 40-624 limits assumed): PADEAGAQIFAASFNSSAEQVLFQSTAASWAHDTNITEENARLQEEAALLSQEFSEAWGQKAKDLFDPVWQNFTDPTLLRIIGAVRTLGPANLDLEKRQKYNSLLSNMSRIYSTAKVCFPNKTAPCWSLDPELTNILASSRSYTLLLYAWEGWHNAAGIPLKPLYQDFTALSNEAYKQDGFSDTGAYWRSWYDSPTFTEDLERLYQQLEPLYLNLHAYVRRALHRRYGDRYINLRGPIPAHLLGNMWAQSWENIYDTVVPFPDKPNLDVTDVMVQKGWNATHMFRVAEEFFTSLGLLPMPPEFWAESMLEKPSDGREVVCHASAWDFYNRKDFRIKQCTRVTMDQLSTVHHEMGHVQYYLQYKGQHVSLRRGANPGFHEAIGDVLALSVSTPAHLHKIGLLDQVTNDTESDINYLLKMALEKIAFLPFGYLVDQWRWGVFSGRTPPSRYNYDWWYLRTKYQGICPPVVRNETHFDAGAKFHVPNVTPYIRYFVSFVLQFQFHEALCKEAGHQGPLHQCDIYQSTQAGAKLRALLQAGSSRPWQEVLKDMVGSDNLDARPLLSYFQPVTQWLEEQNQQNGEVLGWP
Experiment: Hydrolysis of Aβ metal-binding-domain peptides by N-ACE, products identified/quantified by MALDI-TOF MS
Conditions: 40 μM peptide + 0.02 μM N-ACE, 10–40 min (ratAβ peptide: 20 μM + 0.2 μM N-ACE, 10-60 min), 50 mM NaCl, 1 μM ZnCl2, 50 mM sodium bicarbonate pH 7.8 or 25 mM barbital pH 7.4, 37 °C, ND = not detected

- Products observed (backbone positions), N-ACE: 1–13
Substance: Ac-DAEFGHDSGFEVRHQK-NH2 [[CH3CO]-Asp-Ala-Glu-Phe-Gly^5-His-Asp- Ser-Gly- Phe^10-Glu-Val-Arg-His-Gln^15-Lys-[NH2]]
